Assay results as given in PubChem BioAssay AID686978 (National Center for Advancing Translational Sciences (NCATS), 2013).
The whole screen tested about 420,000 compounds, of which about 64,000 (15%) were called active. Inconclusive means that the source gave no clear call. Such entries were picked first, then a sample of the others. The call rests on the fitted dose curve; in most records, active means well fitted inhibition curve with a large enough effect; inconclusive means small, poorly fitted or top-dose-only effect; inactive means flat fitted curve, though single readings scatter. Potencies of inconclusive entries are left out as doubtful fits.

Experiment: qHTS for Inhibitors of human tyrosyl-DNA phosphodiesterase 1 (TDP1): qHTS in cells in absence of CPT; further: nearly all actives have a fitted effect of over 55% in size
Conditions: DT40 Tdp1-/- hTDP1 cells, no CPT, ATP luminescence, 48 h; activity change, negative = growth inhibition: at 46.2 µM (top of the series) unless noted
Method in brief: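 Chicken DT40 Tdp1-/- cells complemented with human TDP1, screened without camptothecin (DMSO vehicle only), 400 cells/well. Compounds pin-transferred, cells incubated at 37 °C for at least 48 hr. Growth read as ATP-dependent luminescence (CellTiter-Glo, 30 min at RT).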
On the % scale 0 is the no-effect control and ±100 the full control effect; potency means the concentration at half of the fitted maximal effect; tags describe the fitted curve by direction and shape.

Structure (SMILES)	Potency	activity change, negative = growth inhibition
O=C(NCCc1ccc2c(c1)OCO2)Oc1ccccc1	inconclusive [inhibitor, partial curve]	
Cc1ccc(NC(=O)c2sc3nc(C)cc(C)c3c2N)cc1	inconclusive [inhibitor, single point]	
CC1(C)O[C@@H]2[C@@H](CO[C@@]3(COS(N)(=O)=O)OC(C)(C)O[C@@H]23)O1	inactive	
COCCNC(=O)C1CCCN(C(=O)c2sc(-c3ccccc3)nc2C)CC1 (configuration not stated)	inactive	
COC(=O)Cc1ccc(N(Cc2ccccc2F)S(=O)(=O)c2ccc(Cl)cc2)cc1	active: 14.6 µM	
O=C(Cc1ccccc1)c1nc2ccccc2s1	inconclusive [inhibitor, single point]	
COc1cc(/C=C/C(=O)Nc2nnc(C(C)(C)C)s2)cc(OC)c1OC	inconclusive [inhibitor, partial curve]	
Cc1c(C)n(C)c2ccc(C(=O)NCCCN(C)C3CCCCC3)cc12	inconclusive [inhibitor, single point]	
Cc1ccccc1C(=O)NC1CCN(Cc2ccccc2)CC1	inactive	
Cc1ccc(S(=O)(=O)N2CCCC(C(=O)Nc3ccc(NC(=O)c4ccccn4)cc3)C2)cc1 (configuration not stated)	inconclusive [inhibitor, partial curve]	
CC1CN(N=Cc2ccc([N+](=O)[O-])o2)C(=N)O1 (configuration not stated)	active: 18.4 µM	
COc1ccc(C2C(=O)c3ccccc3C2=O)c(OC)c1	inactive	
O=C1CCC[C@@H]2C[C@@]3(C[C@@H]4CCN1[C@H]24)Nc1cc(Cl)c(Cl)cc1NC3=NCc1ccccc1	active: 20 µM	
O=C(O)C1CC(=O)N(Cc2ccc(F)cc2)C1 (configuration not stated)	inconclusive [inhibitor, single point]	
Fc1ccc(Nc2nc(-c3ccncc3)nc3ccccc23)cc1	inconclusive [inhibitor, partial curve]	
CC(C)(C)OC(=O)NCCCC[C@H](NC(=O)c1[nH]cnc1C(=O)Nc1ccccc1)C(=O)OC(C)(C)C	active: 23.1 µM	
CN(C)c1ccc(C2N(C)C(=O)c3ccccc3N2C)cc1 (configuration not stated)	inactive	
Cc1ccc(NC(=O)CSCc2ccc(F)cc2)cc1	inconclusive [inhibitor, single point]	
COc1cc(Br)cc2cc(C(=O)N3CCOCC3)c(=O)oc12	inactive	
CSc1ccccc1NC(=O)CN(C)C(=O)C(C)SCc1nc2sc(C)c(C)c2c(=O)[nH]1 (configuration not stated)	inconclusive [inhibitor, single point]	
CS(=O)(=O)c1ccc(-c2cc(NC=O)c3ncc(-c4ccc(F)cc4)n3c2)cc1	active: 23.1 µM	
COc1cc(/C=C/C(=O)OCC(=O)NC(=O)NC2CCCCC2)ccc1OC(F)F	inactive	
CCOC(=O)CC(=O)CSc1nc2c(sc(=S)n2-c2ccc(OCC)cc2)c(=O)[nH]1	inconclusive [inhibitor, single point]	
COc1ccccc1C(=O)Nc1c(C(=O)N2CCN(C)CC2)oc2ccccc12	inactive	

Structure (SMILES)	Potency	activity change, negative = growth inhibition
CN(C)C(=O)CCc1ccc2c3c([nH]c2c1)[C@]1(CCc2ccccc2)[C@@H](C(=O)N2CCCCC2)C[C@H](CC(=O)NCCC2=CCCCC2)C(=O)N1CC3	active: 9.2 µM	
CC(=O)Nc1ccccc1Sc1ccc2c3c(cccc13)C(=O)N(c1ccc(C)cc1)C2=O	active: 16.4 µM	
C=CCSc1nnc2c(n1)OC(C)=Nc1ccc(Br)cc1-2	inactive	
COc1ccc(NS(=O)(=O)c2ccc(F)c(F)c2F)cc1S(=O)(=O)N1CCOCC1	inactive	
CC(=O)N1CC(C)Sc2ccc(S(=O)(=O)NC(C)c3ccccc3)cc21 (configuration not stated)	inconclusive [inhibitor, partial curve]	
c1ccc(-c2noc(CSc3nnnn3C3CCCCC3)n2)cc1	inconclusive [inhibitor, partial curve, poor fit]	
Cc1ccc(NS(=O)(=O)c2c(C)[nH]c(C)c2C(=O)N2CCCC2)cc1Cl	inconclusive [inhibitor, single point]	
O=C1NC(=Nc2ccc(O)cc2)S/C1=C\C=C\c1ccco1	active: 0.731 µM	
C=N[C@@H](C(=O)N[C@@H]1C(=O)N2[C@@H]1SC(C)(C)[C@@H]2C(=O)O)c1ccccc1	inactive	
O=C(Nc1cccc(Cl)c1)OC1CCCCc2cccnc21 (configuration not stated)	inconclusive [inhibitor, single point]	
O=C(c1ccc(-n2cccc2)cc1)N1CCN(Cc2ccccc2)CC1	inconclusive [inhibitor, single point]	
CCCC(=O)OCCNc1cc(SCc2ccco2)c2nonc2c1[N+](=O)[O-]	inconclusive [inhibitor, single point]	
O=C1CSC2(CCN(CCCN3c4ccccc4Sc4ccc(Cl)cc43)CC2)N1	active: 9.44 µM	
O=C(CSc1nnc(-c2ccc(O)cc2)o1)Nc1cccc(O)c1	inactive	
CCOC(=O)C(C)Sc1nnc(-c2c[nH]c3ccccc23)n1C (configuration not stated)	inconclusive [inhibitor, single point]	
Cc1nc(C)c(/C(O)=C\c2nc3ccc([N+](=O)[O-])cc3oc2=O)o1		inconclusive: -32.1% [inhibitor]
O=C(CN(C1CCCCC1)S(=O)(=O)c1ccc(F)cc1)NCc1ccncc1	inactive	
CCOC(=O)N1C2C=C(C)[C@@H]2[C@@H]2CC(=O)N21 (some centres not stated)	inactive	
Cc1ccc(-n2nnnc2SCC(=O)c2cc(C)n(CC3CCCO3)c2C)cc1 (configuration not stated)	inactive	
O=C(Nc1ccccc1)c1ccc2c(c1)OCO2	inconclusive [inhibitor, partial curve]	
CC(=O)c1ccc(OCCn2c(SCC(=O)O)nc3ccccc32)cc1	inactive	
COc1ccc(NS(=O)(=O)c2ccc(Br)s2)cc1OC	inconclusive [inhibitor, single point]	
O=C(Nc1ccc(NC(=O)c2ccc([N+](=O)[O-])o2)cc1Cl)c1ccco1	inconclusive [inhibitor, partial curve]	
